# Counter-ions that a name gives are not always drawn. The list shows a part of the results. No stated cut-off is given here; in the data, active = 0.5 or less and inactive = the rest. Many values rest on one well or one pass, so single values are uncertain.
# Legend:
# Settings in all cases: 50 µM; 24 h
# [1] = tested on: HeLa VPS33A reporter cells; assay: relative cell viability (CellMask signal) vs DMSO (fraction of DMSO); higher = less cytotoxic;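 further: primary screen of an FDA-approved drug library in HeLa reporter cells in 96-well format, CellMask signal normalized to DMSO-treated wells set as 1, under 0.5 deemed highly cytotoxic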
# [2] = tested on: HeLa VPS33A R498W KI + HA-SDC1-FLAG; assay: relative GAG core protein HA-SDC1 amount per cell number vs DMSO (fraction of DMSO); higher = more SDC1 (GAG core protein);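 further: HA-SDC1 level read out by In-Cell Western staining with an anti-HA antibody against the N-terminal tag, screening FDA-approved library drugs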
# [3] = tested on: HeLa VPS33A KO + NLuc-VPS33A R498W; assay: relative mutant VPS33A R498W amount (NanoLuc luminescence) vs DMSO (fraction of DMSO); HeLa model of a glycosaminoglycan (GAG) storage disease; KI is knock-in and KO knock-out; SDC1 is syndecan 1; higher = higher mutant VPS33A level;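 further: screen of an FDA-approved drug library, NanoLuc luminescence read after lysing the treated cells, taken as a measure of mutant VPS33A protein stability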
SMILES,relative cell viability [1],relative GAG core protein HA-SDC1 amount per cell number [2],relative mutant VPS33A R498W amount [3]
COc1ccc(-c2cc(=O)c3c(O)cc(O)cc3o2)cc1O [Diosmetin],1.11,inactive: 0.592,0.944
CCCCCCCCCCCCCCCCCC(=O)O [Stearic Acid],0.987,inactive: 0.87,1.96
O=C1O[C@H]([C@@H](O)CO)C([O-])=C1O.[Na+] [Sodium ascorbate],0.932,inactive: 0.946,1.07
Cc1ccnc2c1NC(=O)c1cccnc1N2C1CC1 [Nevirapine],1.01,inactive: 1.05,0.895
COc1cc(Nc2ncc3c(n2)-c2ccc(Cl)cc2C(c2c(F)cccc2OC)=NC3)ccc1C(=O)O [MLN8237 (Alisertib)],0.792,active: 0.409,0.336
N[C@@H](C=O)[C@@H](O)[C@H](O)[C@H](O)CO [Chitosamine hydrochloride],1,inactive: 0.962,1.1
CC1(C)O[C@@H]2C[C@H]3[C@@H]4C[C@H](F)C5=CC(=O)C=C[C@]5(C)[C@@]4(F)[C@@H](O)C[C@]3(C)[C@]2(C(=O)CO)O1 [Fluocinolone Acetonide],1.04,inactive: 1.07,1.34
O=c1[nH]c(=O)n(C2CCCO2)cc1F (stereo unspecified),1.08,inactive: 1.16,1.41
CC(=O)OCC(=O)[C@@]1(O)[C@H](C)C[C@H]2[C@@H]3CCC4=CC(=O)C=C[C@]4(C)[C@@]3(F)[C@@H](O)C[C@@]21C [Dexamethasone acetate],1.08,inactive: 0.96,1.01
COc1ccc(-c2coc3cc(O)ccc3c2=O)cc1 [Formononetin],0.853,inactive: 0.716,1.21
COc1cc(CNC(=O)CCCC/C=C/C(C)C)ccc1O [Capsaicin],1.12,inactive: 1.27,1.25
Nc1nc(=O)[nH]cc1F [Flucytosine],1.12,inactive: 1.08,1.02
O=C(O)C1(C(=O)O)CCC1.[NH2-].[NH2-].[Pt+2] [Carboplatin],1.17,inactive: 0.727,1.85
Cc1cc(C)nc(NS(=O)(=O)c2ccc(N)cc2)n1 [Sulfamethazine],0.969,inactive: 0.942,1.55
Cc1ccc(/C=C2/C(=O)C3(C)CCC2C3(C)C)cc1 (stereo unspecified) [4-Methylbenzylidene camphor],0.988,inactive: 0.791,0.834
C[C@]12CC[C@@H]3c4ccc(O)cc4CC[C@H]3[C@@H]1CC[C@@H]2O [α-Estradiol],1.23,active: 0.473,0.818
O=C(c1ccccc1)c1ccc2n1CCC2C(=O)O (stereo unspecified) [Ketorolac tromethamine salt],1.44,inactive: 0.671,1.13
CC1(C)CCC(C)(C)c2cc(NC(=O)c3ccc(C(=O)O)cc3)ccc21 [Tamibarotene],0.744,inactive: 0.503,1.04
CCOc1nc2cccc(C(=O)O)c2n1Cc1ccc(-c2ccccc2-c2nnn[nH]2)cc1 [Candesartan],1.08,inactive: 0.885,1.23
Cc1ccc(Nc2c(F)cccc2Cl)c(CC(=O)O)c1 [Lumiracoxib],0.991,inactive: 0.912,0.936
Cc1c(O)cccc1C(=O)N[C@@H](CSc1ccccc1)[C@H](O)CN1C[C@H]2CCCC[C@H]2C[C@H]1C(=O)NC(C)(C)C [Nelfinavir],1.23,inactive: 1.55,0.763
O=Cc1ccc(CO)o1 [5-hydroxymethyl-2-furaldehyde],0.992,inactive: 0.87,1.32
CC(=O)N[C@@H](C=O)[C@@H](O)[C@H](O)[C@H](O)CO [N-acetyl-D-Glucosamine],0.95,inactive: 0.852,1.5
Cc1ncc(COP(=O)(O)O)c(C=O)c1O [Pyridoxal 5 phosphate],1.04,inactive: 0.868,1.41
CCC(=O)NCC[C@@H]1CCc2ccc3c(c21)CCO3 [Ramelteon],1.13,inactive: 1.05,0.921
CC1=C(C(=O)O)N2C(=O)[C@@H](NC(=O)[C@H](N)c3ccccc3)[C@H]2SC1 [Cephalexin],1.13,inactive: 1.62,1.05
NC[C@H]1O[C@H](O[C@H]2[C@H](O)[C@@H](O[C@H]3O[C@H](CO)[C@@H](O)[C@H](N)[C@H]3O)[C@H](N)C[C@@H]2N)[C@H](N)C[C@@H]1O [Tobramycin],1.14,inactive: 0.765,1.07

# Source: the supplement of paper PMC12355420
